{
  "source": "PubChem BioAssay AID2147",
  "about": "(National Center for Advancing Translational Sciences (NCATS), 2009)",
  "note": "The campaign covered roughly 230,000 compounds. About 3,600 (1.6%) were called active. The shares of active, inactive and inconclusive entries below differ from those in the screen. Calls come from the whole dose curve; as a rule, active = well fitted inhibition curve with a large enough effect (not every such curve was filed as active); inconclusive = small, poorly fitted or top-dose-only effect, or another doubt; inactive = no such curve, though single readings can be large or run the other way. Potencies beside an inconclusive call are fits to weak or partial responses and may not hold up. Note: nearly all actives have a fitted effect of over 50% in size. Potency is the fitted concentration of half-maximal effect; tags give direction and shape of the fitted curve.",
  "data": [
    {"molecular_target": "Lysine-specific demethylase 4E (Homo sapiens) (UniProt B2RXH2)", "sequence (B2RXH2 whole entry, looked up, the tested form may be a part)": "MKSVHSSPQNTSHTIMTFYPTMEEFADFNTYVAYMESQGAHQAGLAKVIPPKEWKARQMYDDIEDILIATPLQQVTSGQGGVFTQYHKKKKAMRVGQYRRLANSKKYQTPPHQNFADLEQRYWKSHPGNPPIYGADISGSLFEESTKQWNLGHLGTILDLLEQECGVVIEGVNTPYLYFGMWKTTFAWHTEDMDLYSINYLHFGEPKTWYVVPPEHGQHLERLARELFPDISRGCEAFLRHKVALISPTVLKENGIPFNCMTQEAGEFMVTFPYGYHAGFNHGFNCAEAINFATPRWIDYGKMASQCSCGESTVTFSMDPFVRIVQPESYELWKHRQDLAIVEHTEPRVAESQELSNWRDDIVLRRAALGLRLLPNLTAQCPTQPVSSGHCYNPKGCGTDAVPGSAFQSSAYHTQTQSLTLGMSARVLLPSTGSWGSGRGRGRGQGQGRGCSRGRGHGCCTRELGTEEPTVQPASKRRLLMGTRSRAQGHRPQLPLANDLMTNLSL", "test": "qHTS Assay for Inhibitors of Human Jumonji Domain Containing 2E (JMJD2E)", "conditions": "JMJD2E catalytic domain, FDH-coupled NADH fluorescence (FDH is formaldehyde dehydrogenase); series mostly up to 57.1 µM", "values": [
      {"compound": "Cc1ccc(P(=Nc2ccccc2)(N2CCOCC2)N2CCOCC2)o1", "Potency": "inactive"},
      {"compound": "CN(C)S(=O)(=O)N1CCN(c2ccc([N+](=O)[O-])c(N3CCCCC3)c2)CC1", "Potency": "inactive"},
      {"compound": "Cc1nnc(NC(=O)CCC(=O)N2CCN(CCc3ccccc3)CC2)s1", "Potency": "inactive"},
      {"compound": "O=C(Nc1ccc(S(=O)(=O)N2CCOCC2)cc1)c1ccco1", "Potency": "inactive"},
      {"compound": "CC(=O)Nc1nonc1-c1nc2ccccc2n1Cc1nnc(C)o1", "Potency": "inconclusive: 28.2 µM [inhibitor, single point]"},
      {"compound": "Cc1c(C)c2cc(Cl)c(O)c(CN3CCCCC3)c2oc1=O", "Potency": "inconclusive: 7.08 µM [inhibitor, partial curve]"},
      {"compound": "COc1ccc(NC(=O)C2C3C=CC(O3)C2C(=O)NCc2cccnc2)cc1", "note": "(centres undefined)", "Potency": "inactive"},
      {"compound": "CCN(CC)CCCn1c(=S)[nH]c2ncccc2c1=O", "Potency": "inconclusive: 31.6 µM [inhibitor, single point]"},
      {"compound": "COCCn1cnc2c1c(=O)n(CC(=O)Nc1cc(C)on1)c(=O)n2Cc1ccccc1", "Potency": "inactive"},
      {"compound": "CSc1nnc2c3c4c(sc3nc(-n3nc(C)cc3C)n12)COC(C)(C)C4", "Potency": "inconclusive: 28.2 µM [inhibitor, partial curve]"},
      {"compound": "COc1ccc(/C=N/NC(=O)c2[nH]nc3c2CCc2ccccc2-3)cc1OC", "Potency": "inconclusive: 28.2 µM [inhibitor, partial curve]"},
      {"compound": "CCOC(=O)C1CCCN(C(=O)Cn2sc3nc(C)cc(C)c3c2=O)C1", "note": "(centres undefined)", "Potency": "inconclusive: 31.6 µM [inhibitor, partial curve]"},
      {"compound": "O=C1CN(C(=O)CNCc2ccc(Cl)cc2)c2ccccc2N1", "Potency": "inconclusive: 35.5 µM [inhibitor, single point]"},
      {"compound": "N#Cc1cc(N)ccc1-n1cccc1", "Potency": "inconclusive: 39.8 µM [inhibitor, single point]"},
      {"compound": "O=c1[nH]c(-c2ccc(O)cc2)nc2scc(-c3cccs3)c12", "Potency": "inconclusive: 28.2 µM [inhibitor, partial curve]"},
      {"compound": "C=CC[C@@](C(C)=O)(C(=O)OC)C(NC(=O)OC(C)(C)C)c1ccccc1", "note": "(some centres undefined)", "Potency": "inactive"},
      {"compound": "COc1ccc(/C(C)=N/Nc2ncc(Cl)cc2Cl)c(O)c1", "Potency": "inconclusive: 35.5 µM [inhibitor, single point]"},
      {"compound": "COc1ccc(N2CCN(C(=O)c3cc4c(-c5ccc(Cl)cc5)nn(C)c4s3)CC2)cc1", "Potency": "inactive"},
      {"compound": "Clc1ccc(-c2nnc(SCc3nc4ccccc4[nH]3)o2)c(Cl)c1", "Potency": "inconclusive: 28.2 µM [inhibitor, partial curve]"},
      {"compound": "CCCN1CCN(C(=S)Nc2ccc3nc(N4CCN(CC)CC4)cc(C)c3c2)CC1", "Potency": "inconclusive: 15.8 µM [inhibitor, partial curve]"},
      {"compound": "Cc1ccc(-c2cc(C(=O)Nc3ccccc3C)c3ccccc3n2)o1", "Potency": "inconclusive: 22.4 µM [inhibitor, partial curve]"},
      {"compound": "Cc1cc(/C=C2/NC(=O)N(Cc3ccccc3F)C2=O)c(C)n1C", "Potency": "inconclusive: 31.6 µM [inhibitor, partial curve, poor fit]"},
      {"compound": "COc1ccc(NCc2nnc(SCC(=O)c3ccc(C)cc3)o2)cc1", "Potency": "inactive"},
      {"compound": "O=C(N/N=C/c1ccccn1)c1cccnc1", "Potency": "inconclusive: 35.5 µM [inhibitor, single point]"},
      {"compound": "O=C(COc1ccc(Oc2ccccc2)cc1)NCc1cn2ccccc2n1", "Potency": "inconclusive: 35.5 µM [inhibitor, single point]"},
      {"compound": "N#CC1=C(N)Oc2cc(N)ccc2C1C1CCCCC1", "note": "(centres undefined)", "Potency": "inconclusive: 39.8 µM [inhibitor, single point]"},
      {"compound": "COc1ccc(C(=O)NC(=S)Nc2ccc(S(N)(=O)=O)cc2)cc1", "Potency": "inactive"},
      {"compound": "N=C1C(c2nc3ccccc3s2)=C(O)CN1Cc1ccccc1", "Potency": "inconclusive: 25.1 µM [inhibitor, partial curve]"},
      {"compound": "CCCC(c1nnnn1Cc1ccc(F)cc1)N1CCN(CC)CC1", "note": "(centres undefined)", "Potency": "inactive"},
      {"compound": "COc1ccc(C(=O)CSc2nnc(-c3cc4ccccc4cc3O)n2Cc2ccco2)cc1", "Potency": "inactive"},
      {"compound": "COc1ccc(C2C3=C(CCCC3=O)Nc3nc(-c4cc(OC)c(OC)c(OC)c4)nn32)cc1OC", "note": "(centres undefined)", "Potency": "inconclusive: 20 µM [inhibitor, single point]"},
      {"compound": "Oc1ccc(-c2nc3ccc4ccccc4c3c3c2CCC3)cc1O", "Potency": "active: 25.1 µM"},
      {"compound": "CC(C)(C)NC(=O)N1CCCN(c2ccc(C(F)(F)F)cn2)CC1", "Potency": "inconclusive: 31.6 µM [inhibitor, single point]"},
      {"compound": "CCC(CC)c1nnc(NC(=O)c2cc(-c3ccccc3)nc3ccccc23)s1", "Potency": "inconclusive: 28.2 µM [inhibitor, single point]"},
      {"compound": "Cc1c(C(=O)N/N=C/c2ccc(N(C)C)cc2)[nH]c2ccc(Cl)cc12", "Potency": "inconclusive: 25.1 µM [inhibitor, partial curve]"},
      {"compound": "CC1=C(C(=O)OCC2CCCO2)C(c2ccncc2)C2=C(CCCC2=O)N1", "note": "(centres undefined)", "Potency": "inconclusive: 35.5 µM [inhibitor, partial curve]"},
      {"compound": "CCCCn1c(=N)n(CCOc2ccc(C)cc2)c2ccccc21", "Potency": "inactive"},
      {"compound": "COc1ccc(/C=C/C(=O)Nc2cc(C)nn2-c2nc3ccccc3[nH]2)cc1", "Potency": "inconclusive: 39.8 µM [inhibitor, single point]"},
      {"compound": "c1ccc2c(c1)nc(NCC1CCCO1)c1nnnn12", "note": "(centres undefined)", "Potency": "inconclusive: 28.2 µM [inhibitor, partial curve]"},
      {"compound": "COc1ccc(CCN(C(=S)Nc2ccccc2)C2CC(=O)N(c3ccccc3)C2=O)cc1", "note": "(centres undefined)", "Potency": "inactive"},
      {"compound": "O=C(CN1CCC(C(=O)O)CC1)Nc1ccccc1Oc1ccccc1", "Potency": "inconclusive: 0.126 µM [inhibitor, full curve, poor fit]"},
      {"compound": "Cc1ccc(-n2ncc(C(=O)Nc3cc(Cl)ccc3Cl)c2C2CCNCC2)cc1", "Potency": "inactive"},
      {"compound": "O=C(NCCc1ccccc1)C1CCC(CNS(=O)(=O)c2cccs2)CC1", "note": "(centres undefined)", "Potency": "inactive"},
      {"compound": "N#CC(c1cccc(Cl)c1)c1ccc2c(C(F)(F)F)cc(C(F)(F)F)nc2n1", "note": "(centres undefined)", "Potency": "inactive"},
      {"compound": "CCc1ccc(NC(=O)c2ccc3nc(N)sc3c2)cc1", "Potency": "inactive"},
      {"compound": "CCCSc1nnc(CSc2nc3nc(C)cc(C)n3n2)o1", "Potency": "inactive"},
      {"compound": "COC(=O)C1C2C=CC(C3CC23)C1C(=O)OCC(=O)c1ccc(OC)cc1", "note": "(centres undefined)", "Potency": "inactive"},
      {"compound": "CCCCNC(=O)c1cc2c(=O)n3cccc(C)c3nc2n(Cc2ccncc2)c1=N", "Potency": "inconclusive: 2 µM [inhibitor, partial curve]"},
      {"compound": "OCCN(Cc1ccccc1)Cc1cccc(Cl)c1Cl", "Potency": "inconclusive: 28.2 µM [inhibitor, single point]"},
      {"compound": "COc1ccccc1NC(=O)N(c1c(N)n(Cc2ccccc2)c(=O)[nH]c1=O)C1CCCC1", "Potency": "inactive"},
      {"compound": "Oc1ccc(-c2csc(Nc3ncccn3)n2)cc1O", "Potency": "active: 28.2 µM"},
      {"compound": "Cc1ccc(NC(=O)COC(=O)/C=C/c2cccc(Cl)c2)cc1S(=O)(=O)N1CCOCC1", "Potency": "inconclusive: 28.2 µM [inhibitor, single point]"},
      {"compound": "CC(=O)c1sc(-c2ccc(F)cc2)cc1NS(=O)(=O)c1ccc(C)cc1", "Potency": "inconclusive: 39.8 µM [inhibitor, single point]"},
      {"compound": "CCc1nc(N2CCN(C(C)=O)CC2)c(C#N)c2c1COC(C)(C)C2", "Potency": "inconclusive: 35.5 µM [inhibitor, partial curve]"},
      {"compound": "Nc1nc2sc3c(c2cc1C(=O)N1CCOCC1)CCCC3", "Potency": "inconclusive: 31.6 µM [inhibitor, partial curve]"},
      {"compound": "O=c1c(/C=N/O)c(Nc2ccccc2)nc2ccccn12", "Potency": "inactive"},
      {"compound": "Cc1ccc(-c2nc(C#N)c(NCCN3CCCCC3)o2)cc1", "Potency": "inconclusive: 28.2 µM [inhibitor, partial curve]"},
      {"compound": "Cc1cc(C(=O)Nc2ccc(N3CCOCC3)cc2)c2ccccc2n1", "Potency": "inactive"},
      {"compound": "COc1ccc(Nc2nc(N)nc(CSC(=S)N3CCCCC3C)n2)cc1", "note": "(centres undefined)", "Potency": "inactive"},
      {"compound": "O=C(c1ccc(S(=O)(=O)N2CCCCC2)cc1)N1CCN(CCN2C(=O)c3cccc4cccc(c34)C2=O)CC1", "Potency": "inactive"},
      {"compound": "COC(=O)c1c(-c2cc(OC)c(OC)c(OC)c2)c2ccnc(OCc3ncccn3)c2c(=O)n1Cc1ccnc(C)c1", "Potency": "inactive"},
      {"compound": "CC1CCCCN1CCNC(=O)c1cc2c(=O)n(C)c3ccccc3c2n1C", "note": "(centres undefined)", "Potency": "inconclusive: 14.1 µM [inhibitor, partial curve]"},
      {"compound": "COC(=O)c1[nH]c2cccc(C)c2c1NC(=O)CN1CCCc2ccccc21", "Potency": "inconclusive: 31.6 µM [inhibitor, single point]"},
      {"compound": "O=C(COC(=O)Cc1c(Cl)cccc1Cl)Nc1ccc(OC(F)(F)F)cc1", "Potency": "inactive"},
      {"compound": "c1ccc(N2CCN(Cc3nc4ccccc4[nH]3)CC2)nc1", "Potency": "inconclusive: 31.6 µM [inhibitor, single point]"},
      {"compound": "COc1ccc2c(c1)O[C@@H](c1ccc3c(c1)OCO3)[C@H](OC(=O)N[C@H]1CCCc3ccccc31)C2=O", "Potency": "inactive"},
      {"compound": "CN(CC(=O)NCc1cccnc1)S(=O)(=O)c1ccc2c(c1)c(=O)n(C)c(=O)n2C", "Potency": "inconclusive: 28.2 µM [inhibitor, single point]"},
      {"compound": "COc1ccccc1CNC(=O)CSc1nnc2c(Cl)cc(C(F)(F)F)cn12", "Potency": "inconclusive: 35.5 µM [inhibitor, single point]"},
      {"compound": "CCOc1cc(CNCCSc2nnnn2C)cc(Br)c1OCc1ccc(F)cc1", "Potency": "inactive"},
      {"compound": "CCC(C)C(=O)Nc1nc(-c2ccc3c(c2)NC(=O)CO3)cs1", "note": "(centres undefined)", "Potency": "inactive"},
      {"compound": "COc1ccc(-c2cc(C(F)(F)F)nc(-n3cc(Br)cn3)n2)cc1", "Potency": "inconclusive: 28.2 µM [inhibitor, partial curve]"},
      {"compound": "CCCC(=O)Nc1cc(C(=O)O)ccc1S(=O)(=O)c1ccc(C)cc1", "Potency": "inactive"},
      {"compound": "Oc1ccc2c(c1)OCC1(O)Cc3cc(O)c(O)cc3C21", "note": "(centres undefined)", "Potency": "active: 14.1 µM"},
      {"compound": "Cc1ccc(-c2nn3c(C)nnc3c3ccccc23)cc1S(=O)(=O)N1CCN(CCO)CC1", "Potency": "inconclusive: 39.8 µM [inhibitor, single point]"}
    ]}
  ]
}
